# Data published in PubChem BioAssay AID504832 (National Center for Advancing Translational Sciences (NCATS), 2011).
# “And” between values parts separate entries of the source, which are not always exact repeats. Identical values can stand only once. In all, about 310,000 compounds went through this assay and about 18,000 (5.8%) were called active. Inconclusive results, whose numbers are uncertain, are shown with a selection of clear calls. Calls follow the shape of the dose curve; as a rule, active = well fitted inhibition curve with a large enough effect; inconclusive = small, poorly fitted or top-dose-only effect, or another doubt; inactive = no such curve, though single readings can be large or run the other way. Potencies beside an inconclusive call are fits to weak or partial responses and may not hold up.
# Assay: Primary qHTS for delayed death inhibitors of the malarial parasite plastid, 48 hour incubation
# Settings: P. falciparum luciferase growth in erythrocytes; series mostly up to 28.7 µM; activity change, negative = inhibition: at the top concentration
# Summary of the method: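 Luciferase-expressing parasites in RBCs, 2% Hct / 0.1% parasitemia final; RPMI 1640 + 0.5% Albumax; 37 C, 5% CO2, one generation; luminescence read-out, lower signal = inhibition.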
# % is scaled to controls: 0 for no effect and ±100 for the full control effect; potency is read from the fitted curve at half-maximal effect; tags tell the direction and shape of the fitted curve.
Compound,Potency,"activity change, negative = inhibition"
COc1ccc(C(=O)N(C)CCCC2CCCC2)cc1OC1CCN(C(C)=O)CC1,"inconclusive: 4.15 µM [inhibitor, partial curve]",
COC(=O)NN=C1CCC(c2ccccc2)CC1 (stereo unspecified),,inactive: 10.1%
CC(C)NC(=O)CN1C(=O)c2cccc3cccc1c23,"inconclusive: 11.7 µM [inhibitor, single point]",
O=C(Nc1ccc(S(=O)(=O)Nc2ncccn2)cc1)c1ccc2ncsc2c1,"inconclusive: 18.5 µM [inhibitor, single point]",
Cc1ccc(S(=O)(=O)N(CC(=O)N2CCN(c3ccc(F)cc3)CC2)C2CCCCC2)cc1,"inconclusive: 1.31 µM [inhibitor, partial curve, poor fit]",
Cc1nnc(Nc2ccc3c(c2)ncn3C)c2ccccc12,"inconclusive: 13.1 µM [inhibitor, partial curve, poor fit]",
O=c1ccnc(SCCc2ccccc2)[nH]1,,inactive: -8.09%
Cn1c(=O)c2c(nc(SCCCC#N)n2Cc2ccccc2F)n(C)c1=O,"inconclusive: 10.4 µM [inhibitor, single point]",
O=C(Nc1ccc(Cl)cc1C(=O)c1ccccc1)c1ccccc1,,inactive: 13.3%
COc1ccc(CN(C)C(C)C(=O)Nc2ccc([N+](=O)[O-])cc2Cl)cc1OC (stereo unspecified),"inconclusive: 11.7 µM [inhibitor, partial curve, poor fit]",
COc1ccccc1C(=O)Nc1ccnn1C1CCN(C/C=C/c2ccccc2)CC1,"inconclusive: 13.1 µM [inhibitor, single point]",
Cc1ccccc1NS(=O)(=O)c1ccc2[nH]cc(C(=O)N3CCCCC3)c(=O)c2c1,"inconclusive: 11.7 µM [inhibitor, single point]",
CN(C)c1nc(OCCNC(=O)COc2ccccc2Cl)nc(N(C)C)n1,"inconclusive: 11.7 µM [inhibitor, partial curve, poor fit]",
C/C(=N\NC(=O)CNc1cccc(C(F)(F)F)c1)c1cccs1,,inactive: 3.2%
Cc1ccc(C(=O)c2cnc3cc4c(cc3c2S(=O)(=O)c2ccccc2)OCCO4)cc1,active: 3.29 µM,
O=C(Nc1ccccc1)c1ccc(S(=O)(=O)N2CCOCC2)cc1,,inactive: 2.64%
CC1(C)C(=O)CC[C@@]2(C)[C@H]1CC[C@@]1(C)CC3=C(CC[C@@H]12)[C@@]1(C)CCC(=O)C(C)(C)[C@@H]1CC3,active: 11.7 µM,
COc1cc2nc(C3CCC3)nc(N3CCN(c4ccccn4)CC3)c2cc1OC,"inconclusive: 11.7 µM [inhibitor, single point]",
CCOC(=O)Cn1c2ccc(OC)cc2c2nc3ccccc3nc21,"inconclusive: 2.33 µM [inhibitor, partial curve, poor fit]",
COc1ccc(S(=O)(=O)N2CCOC23CCN(S(=O)(=O)c2ccc(F)cc2)CC3)cc1,"inconclusive: 16.5 µM [inhibitor, partial curve, poor fit]",
COc1cccc(CN(C)C(=O)c2ccc(OCC(=O)N3CCOCC3)c(OC)c2)c1,,inactive: -7.69%
COc1cc(OC)cc(-c2c(-c3ccc(F)cc3)c3cc(-c4ccc5cc[nH]c5c4)ccc3n2C)c1,active: 5.22 µM,
O=C(O)CCCNC(=O)Cc1ccccc1,,inactive: 25.1%

Compound,Potency,"activity change, negative = inhibition"
CCCCn1c(N)c(C(=O)NCc2cccs2)c2nc3ccccc3nc21,"inconclusive: 10.4 µM [inhibitor, single point]",
Cc1ccc(C)[n+](CC(=O)c2ccc(-c3ccccc3)cc2)c1,active: 9.28 µM,
CCN(CC)C(=O)CSC(=Nc1ccccc1F)NC#N,,inactive: 85.2%
CC(C)c1ccc(NC(=O)C2CCN(S(=O)(=O)c3ccc4c(c3)NC(=O)CO4)CC2)cc1,"inconclusive: 10.4 µM [inhibitor, partial curve]",
CCCCN1C2=NCCCN2c2cc(C)c(C)cc21,active: 13.1 µM,
CC1(C)C(C=C(Cl)Cl)C1C(=O)OCc1cccc(Oc2ccccc2)c1 (stereo unspecified),"inconclusive: 16.9 µM [inhibitor, partial curve, poor fit] and inconclusive: 18.5 µM [inhibitor, single point]",
COc1ccc2c(c1)[nH]c1c(C)nccc12,"inconclusive: 18.5 µM [inhibitor, single point]",
COc1ccccc1NS(=O)(=O)c1cc(NC(=O)C(C)NC(N)=O)ccc1N1CCCC1 (stereo unspecified),"inconclusive: 18.5 µM [inhibitor, single point]",
Cc1nn2c(NCc3ccccn3)cc(C(C)C)nc2c1-c1ccccc1,active: 1.65 µM,
O=C(CCN1CCc2ccccc21)c1ccc2c(c1)OCCO2,active: 5.22 µM,
O=c1cc(O)c(-c2ccc(Cl)cc2)c(Cl)[nH]1,active: 13.1 µM,
CCOC(=O)c1c(CN2CCN(CCO)CC2)n(C)c2cc(Br)c(OC)cc12,active: 10.4 µM,
C[C@]12CC[C@H]3c4ccc(O)cc4CC[C@@H]3[C@H]1CC[C@@H]2OP(=O)(O)O,,inactive: -12%
CC(C)Cn1c(=O)c(C(=O)NCc2ccccn2)c(O)c2ccccc21,active: 11.7 µM,
O=C1N=C(N2CCN(c3ccccc3)CC2)S/C1=C\c1cn[nH]c1-c1ccccc1,"inconclusive: 10.4 µM [inhibitor, single point]",
CCc1ccccc1NC(=O)c1cc(-c2ccco2)on1,,inactive: 29.8%
COc1cccc(C(=O)NCCS(=O)(=O)N2CCC(C)CC2)c1,,inactive: 12.1%
O=c1nc(N/N=C/C=C/c2ccccc2)cn[nH]1,,inactive: 72%
O=C1COc2ccc(C(=O)CSc3ccccc3C(=O)O)cc2N1,,inactive: 11.8%
Cc1ccc(-c2nc3ccccc3c(=O)n2CCCn2ccnc2)cc1,"inconclusive: 13.1 µM [inhibitor, single point]",
O=[N+]([O-])c1ccc(N2CCN(C(=S)Nc3ccc(F)cc3)CC2)cc1,"inconclusive: 14.7 µM [inhibitor, partial curve]",
COc1ccc(NC(=O)CCC(=O)N2CCN(S(=O)(=O)c3ccc(C)cc3)CC2)c(OC)c1,,inactive: -9.09%
C(=N\n1cnnc1)/c1ccc(OCc2ccccc2)cc1,"inconclusive: 18.5 µM [inhibitor, single point]",
